Results published in a compilation of properties of binary mixtures (doi:10.1016/j.fluid.2013.11.025).
Some of these densities may be calculated back from excess volumes.

Test: xn = mol fraction of the nth substance listed
Details: 101 kPa

CCCCCCCC[N+](CC)(CC)CC.O=S(=O)([N-]S(=O)(=O)C(F)(F)F)C(F)(F)F + CO
Details | mass density [kg/m3]
283.15 K, x2 = 0.0803 | 1256.9
283.15 K, x2 = 0.2016 | 1249.6
283.15 K, x2 = 0.2991 | 1242.2
283.15 K, x2 = 0.5998 | 1201.3
283.15 K, x2 = 0.7 | 1174.2
288.15 K, x1 = 0.0131 | 850.7
288.15 K, x2 = 0.0803 | 1252.7
288.15 K, x2 = 0.2016 | 1245.3
288.15 K, x2 = 0.2991 | 1238.1
288.15 K, x2 = 0.3982 | 1228.2
288.15 K, x2 = 0.5086 | 1213.6
288.15 K, x2 = 0.5998 | 1196.9
288.15 K, x2 = 0.7 | 1169.8
288.15 K, x2 = 0.7996 | 1125.9
288.15 K, x2 = 0.9001 | 1039.1
293.15 K, x2 = 0.0803 | 1248.5
293.15 K, x2 = 0.2016 | 1241.2
293.15 K, x2 = 0.2991 | 1233.9
293.15 K, x2 = 0.3982 | 1224
293.15 K, x2 = 0.5086 | 1209.3
293.15 K, x2 = 0.5998 | 1192.6
293.15 K, x2 = 0.7 | 1165.4
293.15 K, x2 = 0.7996 | 1121.3
293.15 K, x2 = 0.9001 | 1034.5
298.15 K, x1 = 0.0131 | 841.2
298.15 K, x2 = 0.0803 | 1244.4
298.15 K, x2 = 0.2016 | 1237.1
298.15 K, x2 = 0.2991 | 1229.7
298.15 K, x2 = 0.3982 | 1219.8
298.15 K, x2 = 0.5086 | 1205
298.15 K, x2 = 0.5998 | 1188.2
298.15 K, x2 = 0.7 | 1160.9
298.15 K, x2 = 0.7996 | 1116.8
303.15 K, x1 = 0.0131 | 836.4
303.15 K, x2 = 0.0803 | 1240.3
303.15 K, x2 = 0.5086 | 1200.7
303.15 K, x2 = 0.7 | 1156.5
303.15 K, x2 = 0.7996 | 1112.3
303.15 K, x2 = 0.9001 | 1025.2
308.15 K, x2 = 0.0803 | 1236.3
308.15 K, x2 = 0.2016 | 1228.9
308.15 K, x2 = 0.2991 | 1221.4
308.15 K, x2 = 0.5086 | 1196.4
308.15 K, x2 = 0.5998 | 1179.5
308.15 K, x2 = 0.7 | 1152.1
308.15 K, x2 = 0.9001 | 1020.5
313.15 K, x1 = 0.0131 | 826.9
313.15 K, x2 = 0.0803 | 1232.2
313.15 K, x2 = 0.2016 | 1224.8
313.15 K, x2 = 0.3982 | 1207.1
313.15 K, x2 = 0.5086 | 1192.2
313.15 K, x2 = 0.5998 | 1175.2
313.15 K, x2 = 0.7 | 1147.7
313.15 K, x2 = 0.7996 | 1103.3
313.15 K, x2 = 0.9001 | 1015.8
318.15 K, x1 = 0.0131 | 822
318.15 K, x2 = 0.0803 | 1228.1
318.15 K, x2 = 0.2016 | 1220.7
318.15 K, x2 = 0.2991 | 1213.1
318.15 K, x2 = 0.3982 | 1202.9
318.15 K, x2 = 0.5086 | 1187.9
318.15 K, x2 = 0.7 | 1143.3
318.15 K, x2 = 0.7996 | 1098.8
318.15 K, x2 = 0.9001 | 1011.2
323.15 K, x1 = 0.0131 | 817.2
323.15 K, x2 = 0.0803 | 1224.1
323.15 K, x2 = 0.2016 | 1216.6
323.15 K, x2 = 0.2991 | 1209
323.15 K, x2 = 0.3982 | 1198.7
323.15 K, x2 = 0.5086 | 1183.6
323.15 K, x2 = 0.5998 | 1166.6
323.15 K, x2 = 0.7 | 1138.9
323.15 K, x2 = 0.7996 | 1094.2
323.15 K, x2 = 0.9001 | 1006.5
328.15 K, x1 = 0.0131 | 812.3
328.15 K, x2 = 0.2013 | 1212.5
328.15 K, x2 = 0.2991 | 1204.8
328.15 K, x2 = 0.5086 | 1179.4
328.15 K, x2 = 0.5998 | 1162.2
328.15 K, x2 = 0.7 | 1134.5
328.15 K, x2 = 0.7996 | 1089.7
333.15 K, x1 = 0.0131 | 807.3
333.15 K, x2 = 0.0803 | 1216
333.15 K, x2 = 0.2016 | 1208.4
333.15 K, x2 = 0.2991 | 1200.7
333.15 K, x2 = 0.3982 | 1190.4
333.15 K, x2 = 0.5086 | 1175.2
333.15 K, x2 = 0.5998 | 1157.9
333.15 K, x2 = 0.7 | 1130.1
333.15 K, x2 = 0.7996 | 1085.2
333.15 K, x2 = 0.9001 | 997.1
338.15 K, x2 = 0.0803 | 1212
338.15 K, x2 = 0.2016 | 1204.3
338.15 K, x2 = 0.2991 | 1196.6
338.15 K, x2 = 0.3982 | 1186.2
338.15 K, x2 = 0.5086 | 1170.9
338.15 K, x2 = 0.7 | 1125.7
338.15 K, x2 = 0.7996 | 1080.6
338.15 K, x2 = 0.9001 | 992.3
